Results as given in the supplement of paper PMC12355420.
This is one part of the list. Rule as the data show it: active = 0.5 or less and inactive = the rest. Most values come without repeats; read them as rough.

How the values were obtained:
Details in all cases: 50 µM; 24 h
[1] = system: HeLa VPS33A reporter cells; assay: relative cell viability (CellMask signal) vs DMSO (fraction of DMSO); higher = less cytotoxic;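 also: primary screen of an FDA-approved drug library in HeLa reporter cells in 96-well format, CellMask signal normalized to DMSO-treated wells set as 1, under 0.5 deemed highly cytotoxic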
[2] = system: HeLa VPS33A R498W KI + HA-SDC1-FLAG; assay: relative GAG core protein HA-SDC1 amount per cell number vs DMSO (fraction of DMSO); higher = more SDC1 (GAG core protein);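 also: HA-SDC1 level read out by In-Cell Western staining with an anti-HA antibody against the N-terminal tag, screening FDA-approved library drugs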
[3] = system: HeLa VPS33A KO + NLuc-VPS33A R498W; assay: relative mutant VPS33A R498W amount (NanoLuc luminescence) vs DMSO (fraction of DMSO); HeLa model of a glycosaminoglycan (GAG) storage disease; KI is knock-in and KO knock-out; SDC1 is syndecan 1; higher = higher mutant VPS33A level;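 also: screen of an FDA-approved drug library, NanoLuc luminescence read after lysing the treated cells, taken as a measure of mutant VPS33A protein stability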

| SMILES | relative cell viability [1] | relative GAG core protein HA-SDC1 amount per cell number [2] | relative mutant VPS33A R498W amount [3] |
| --- | --- | --- | --- |
| C[C@]12CCC(=O)C=C1CC[C@@H]1[C@@H]2[C@@H](O)C[C@@]2(C)[C@H]1CC[C@]2(O)C(=O)CO [Hydrocortisone] | 0.997 | inactive: 1.03 | 0.825 |
| CCC(CC)[C@H](NC(C)=O)[C@@H]1[C@H](O)[C@@H](C(=O)O)C[C@H]1NC(=N)N [Peramivir Trihydrate] | 1.09 | inactive: 0.936 | 1.21 |
| CO[C@@H]1[C@@H](OC(N)=O)[C@@H](O)[C@H](Oc2ccc3c(O)c(NC(=O)c4ccc(O)c(CC=C(C)C)c4)c(=O)oc3c2C)OC1(C)C [Novobiocin Sodium] | 0.94 | inactive: 0.847 | 0.751 |
| CC(C)(S)[C@@H](N)C(=O)O [Penicillamine] | 1.1 | inactive: 0.963 | 1.1 |
| N=C(N)N/N=C/c1c(Cl)cccc1Cl [Guanabenz Acetate] | 1.03 | inactive: 0.592 | 0.675 |
| O=C(CCCN1CC=C(n2c(=O)[nH]c3ccccc32)CC1)c1ccc(F)cc1 [Droperidol] | 1.03 | inactive: 0.801 | 1.02 |
| C/C(=C\C(=O)OCCCCCCCCC(=O)O)C[C@@H]1OC[C@H](C[C@@H]2O[C@H]2[C@@H](C)[C@H](C)O)[C@@H](O)[C@H]1O [Mupirocin] | 1.14 | inactive: 0.678 | 1.17 |
| Cc1cc(Nc2cc(N3CCN(C)CC3)nc(Sc3ccc(NC(=O)C4CC4)cc3)n2)n[nH]1 [VX-680 (MK-0457,Tozasertib)] | 1.01 | inactive: 0.827 | 0.514 |
| O=C(O)CCCCC1CCSS1 (racemic) [DL-α-Lipoic Acid] | 0.966 | inactive: 0.935 | 1.71 |
